Measurements taken from PubChem BioAssay AID463173 (ICCB-Longwood Screening Facility, Harvard Medical School, 2010).
Out of some 52,000 compounds screened, about 1,700 (3.3%) were called active. No stated cut-off is given here; in the data, active means survival mostly below about 52% (no sharp cut-off); inactive means mostly above about 56%. The list shows a part of the results.

Tested on: Wild type
Experiment: growth inhibition of S. aureus wild type versus tarO mutant, primary screen, teichoic acid synthesis inhibitors, RN4220, OD600 (AID 463173)
Settings: S. aureus RN4220 wild type/DeltatarO growth, OD600, 18 h, hits give low values, screened at 18.75 µg/mL (by protocol)

Question: With `CCN1CCc2nc3sc(C(=O)Nc4cccc(Cl)c4C)c(N)c3cc2C1` as the compound, how does the survival read?
Answer: inactive: 149%

Question: Which survival does the source give for `CC1CCC(C(=O)NC(C(=O)OCC(=O)c2ccccc2)C(C)C)CC1` (centres undefined) here?
Answer: inactive: 91%

Question: With `CCOc1cc(C(=O)OCc2cc(=O)n3nc(CC)sc3n2)cc(OCC)c1OCC` as the compound, how does the survival read?
Answer: inactive: 82%

Question: With `Cc1ccccc1-c1nnc(NC(=O)CC(C)C)s1` as the compound, how does the survival read?
Answer: inactive: 116%

Question: For `CCC(=O)N1CCc2cc(Br)cc(S(=O)(=O)N3CCCC(C(=O)Nc4ccc(C(C)C)cc4)C3)c21` (centres undefined), which survival is on record?
Answer: inactive: 106%

Question: `CCc1cnc2c(c1SCC(=O)c1ccccc1)c(=O)n(C)c(=O)n2C` was tested. Which survival did it give?
Answer: inactive: 69%

Question: How did the survival turn out when `O=c1cc(CSc2ccc(Cl)cc2)[nH]c(=S)[nH]1` was run?
Answer: inactive: 107%

Question: With `O=C(Nc1cccc(-c2nnn(CC(=O)N3CCc4ccccc4C3)n2)c1)C1CCC1` as the compound, how does the survival read?
Answer: inactive: 112%

Question: How did the survival turn out when `COC(=O)c1ccccc1NC(=O)c1c(C)oc2ncn(C)c(=O)c12` was run?
Answer: inactive: 95%

Question: `COc1ccc(OCc2nc3ccccc3n2Cc2ccccc2Cl)cc1` was tested. Which survival did it give?
Answer: inactive: 72%

Question: How did the survival turn out when `CCCCC(=O)N(c1ccc2oc(C)c(C(C)=O)c2c1)S(=O)(=O)c1ccc(F)cc1C` was run?
Answer: inactive: 70%

Question: How did the survival turn out when `CCOc1sc2nc(C)n(CC(=O)Nc3cccc(C)c3)c(=O)c2c1C` was run?
Answer: inactive: 128%

Question: For `Cc1nn(-c2ccccc2)c2sc(C(=O)N/N=C/c3ccccc3)cc12`, which survival is on record?
Answer: inactive: 109%

Question: With `COc1ccc(-c2ccc(NS(=O)(=O)c3ccc(OC)c(OC)c3)cc2)nn1` as the compound, how does the survival read?
Answer: inactive: 75%

Question: For `Cc1cn2c(=O)cc(COc3ccccc3NC(=O)c3ccco3)nc2s1`, which survival is on record?
Answer: inactive: 83%

Question: Which survival does the source give for `Cc1c(C(=O)NCc2cccc(Cl)c2)sc2nc3n(c(=O)c12)CCC3` here?
Answer: inactive: 118%

Question: Which survival does the source give for `Cc1ccc(CNS(=O)(=O)c2cc3[nH]c(=O)c(=O)[nH]c3cc2C)cc1` here?
Answer: inactive: 60%

Question: For `Cc1ccc(S(=O)(=O)NC2(C(F)(F)F)C(=O)Nc3c2c(=O)[nH]c(=O)n3-c2ccccc2)cc1` (centres undefined), which survival is on record?
Answer: inactive: 100%

Question: How did the survival turn out when `NC(=O)c1nc(-c2ccc(F)c(F)c2)nc2c1[nH]c(=O)n2-c1cccc(Cl)c1` was run?
Answer: inactive: 91%

Question: `CCN1CCN(CCCNC(=O)c2cnn(-c3ccc(C)cc3C)c2C2CCN(C(=O)OC(C)(C)C)CC2)CC1` was tested. Which survival did it give?
Answer: inactive: 148%

Question: How did the survival turn out when `O=S(=O)(c1ccc(Br)cc1)c1nnn2c1nc(N1CCOCC1)c1sccc12` was run?
Answer: inactive: 75%

Question: How did the survival turn out when `C/C(=N/OC(=O)c1ccccc1)c1cccs1` was run?
Answer: inactive: 107%

Question: Which survival does the source give for `CSc1nc2sc3c(c2c(=O)n1Cc1ccccc1)CCC(C(C)(C)C)C3` (centres undefined) here?
Answer: inactive: 113%

Question: For `Cc1ccc(C(=O)Nc2ccc3nc(SCC(=O)N4CCCc5ccccc54)sc3c2)cc1`, which survival is on record?
Answer: inactive: 83%

Question: Which survival does the source give for `COc1ccc(N2CCN(CC(=O)c3ccc(OC)c(OC)c3)CC2)cc1` here?
Answer: inactive: 106%

Question: How did the survival turn out when `O=C(COC(=O)c1cc(-c2ccccc2)nc2ccccc12)c1ccc(Br)cc1` was run?
Answer: inactive: 78%

Question: For `Cc1ccc(CNC(=O)Cc2ccc(NC(=O)N3CCSc4ncccc43)cc2)cc1`, which survival is on record?
Answer: inactive: 75%

Question: For `CCOc1ccccc1NC(=O)CN1C(=O)COc2ccc(S(=O)(=O)NC3CCCC3)cc21`, which survival is on record?
Answer: inactive: 83%

Question: For `CCN=C1Sc2nc3ccc(OCC)cc3cc2CN1CCOC`, which survival is on record?
Answer: inactive: 100%

Question: Which survival does the source give for `O=C1NN(c2ccccc2)C(=O)C2C3C=CC(C4CC34)C12` (centres undefined) here?
Answer: inactive: 111%

Question: Which survival does the source give for `CCCNC(=O)c1ccc(Cn2c(=O)c3cccn3c3cccnc32)cc1` here?
Answer: inactive: 89%

Question: For `CCc1ccccc1NC(=O)c1ccc2c(c1)nnn2C1CCCC1`, which survival is on record?
Answer: inactive: 120%

Question: `COc1ccccc1CNC(=O)CCC1N=C2c3ccccc3N=C(SCc3ccc(Cl)cc3)N2C1=O` (centres undefined) was tested. Which survival did it give?
Answer: active: 0%

Question: With `COCCCNC(=O)CCCn1c(=O)c2cccn2c2ccccc21` as the compound, how does the survival read?
Answer: inactive: 84%

Question: Which survival does the source give for `Cc1ccc(N2CCN(S(=O)(=O)c3ccc(Cl)c4ccccc34)CC2)c(C)c1` here?
Answer: inactive: 88%

Question: With `O=C(Nc1cccc(C(F)(F)F)c1)c1cccc(C(=O)Nc2cccc(C(F)(F)F)c2)c1` as the compound, how does the survival read?
Answer: inactive: 86%

Question: Which survival does the source give for `COc1ccccc1N1CCN(S(=O)(=O)c2cccc3nsnc23)CC1` here?
Answer: inactive: 115%

Question: With `CCOC(=O)c1c(C)c(-c2ccccc2)n(CC(=O)Nc2cc(C)cc(C)c2)c1C` as the compound, how does the survival read?
Answer: inactive: 93%

Question: With `O=C1CCCc2cc(S(=O)(=O)NCC3CCC(C(=O)NCc4ccc(F)cc4)CC3)ccc2N1` (centres undefined) as the compound, how does the survival read?
Answer: inactive: 93%

Question: `O=C(CSc1nnc(-c2cccc(F)c2)c(-c2cccc(F)c2)n1)NC1CCCCC1` was tested. Which survival did it give?
Answer: inactive: 45%

Question: Which survival does the source give for `COc1ccc(-n2nc3c(N4CCC(C(=O)NCCc5ccccc5)CC4)nnc(C)c3c2C)cc1` here?
Answer: inactive: 80%

Question: Which survival does the source give for `COc1cccc(CSc2nc(-c3ccccc3F)nc3c2Cc2c(CO)cnc(C)c2O3)c1` here?
Answer: inactive: 83%

Question: `O=C(Cn1ncc2c(=O)oc3ccccc3c21)N1CCN(c2ccc(Cl)cc2)CC1` was tested. Which survival did it give?
Answer: inactive: 78%

Question: `CCOC(=O)c1c(NC(=O)COc2ccccc2Br)sc2c1CCCCC2` was tested. Which survival did it give?
Answer: inactive: 39%

Question: With `CC(C)(C)c1ccc(C(=O)N(Cc2ccc(F)cc2)Cc2ccco2)cc1` as the compound, how does the survival read?
Answer: inactive: 76%

Question: For `Cc1ccc(-c2nnc(Nc3ccccc3)c3ccccc23)cc1S(=O)(=O)N1CCN(C)CC1`, which survival is on record?
Answer: inactive: 70%

Question: With `COc1ccc2cc(CNc3ccc(C)cc3)c(=O)n(CC(=O)Nc3cccc(Cl)c3C)c2c1` as the compound, how does the survival read?
Answer: inactive: 73%

Question: `CCOC(=O)c1cc2oc(C)cc2n1CC(=O)NC1CC1` was tested. Which survival did it give?
Answer: inactive: 94%

Question: How did the survival turn out when `COc1cc(Cl)c(C)cc1NC(=O)c1cnn(-c2ccc(F)cc2F)c1C1CCN(C(=O)OC(C)(C)C)CC1` was run?
Answer: inactive: 57%

Question: For `CCn1cc2nc(SCc3ccc(F)cc3)n(CCc3ccccc3)c(=O)c2n1`, which survival is on record?
Answer: inactive: 77%

Question: For `CCN(CCCNC(=O)c1ccc(Sc2ccc(Cl)cc2)c(NC(C)=O)c1)c1ccccc1`, which survival is on record?
Answer: inactive: 84%

Question: With `O=C(c1cccs1)N(Cc1cccnc1)c1nc2c(F)cc(F)cc2s1` as the compound, how does the survival read?
Answer: inactive: 69%

Question: Which survival does the source give for `COc1ccc(-c2nc(CSc3nnc(C)n4c3cc3oc(C)cc34)c(C)o2)cc1OC` here?
Answer: inactive: 89%

Question: For `CCN(CC)S(=O)(=O)c1nnc(NC(=O)c2ccc(Br)cc2)s1`, which survival is on record?
Answer: inactive: 57%

Question: How did the survival turn out when `Cc1ccc(S(=O)(=O)/N=C2\C=C(Sc3ncn[nH]3)C(=O)c3ccccc32)cc1` was run?
Answer: inactive: 69%

Question: How did the survival turn out when `O=S(=O)(c1ccccc1)c1nc(-c2cccc(Cl)c2)oc1N1CCOCC1` was run?
Answer: inactive: 80%

Question: For `COc1ccc(CCNC(=O)C2CCCN(S(=O)(=O)c3ccc4c(c3)oc(=O)n4C)C2)cc1OC` (centres undefined), which survival is on record?
Answer: inactive: 78%

Question: `O=C(O)CN1CCCCC1` was tested. Which survival did it give?
Answer: inactive: 91%

Question: Which survival does the source give for `CCOc1ccc(-c2cc3nc(C4CCN(C(=O)OC(C)(C)C)CC4)c(C(=O)Nc4c(C)cccc4C)cn3n2)cc1` here?
Answer: inactive: 86%

Question: For `Cc1ccc(CNC(=O)CCc2cn(Cc3ccc(C)cc3)c3ccccc23)cc1`, which survival is on record?
Answer: inactive: 83%

Question: How did the survival turn out when `CCOC(=O)c1c(C)sc(-c2c(-c3cccc(Cl)c3)[nH]c3c2c(=O)n(C)c(=O)n3C)c1O` was run?
Answer: inactive: 114%

Question: How did the survival turn out when `COc1ccc(NC(=O)C2=C(C)Nc3ncnn3C2c2ccc[nH]2)cc1` (centres undefined) was run?
Answer: inactive: 83%

Question: For `Cc1cc(C)c(Cn2c(=O)n(CCCCC(=O)NCc3ccccc3Cl)c(=O)c3ccccc32)c(C)c1`, which survival is on record?
Answer: inactive: 90%

Question: For `CC1=NN(c2ccccc2)C(=O)C1(O)C1C(=O)c2ccccc2C1=O` (centres undefined), which survival is on record?
Answer: inactive: 110%

Question: How did the survival turn out when `CCC(=O)Nc1ccccc1-c1nc2ccccc2n(C(CC)C(=O)Nc2cccc(Cl)c2)c1=O` (centres undefined) was run?
Answer: inactive: 48%

Question: Which survival does the source give for `CC(=O)Nc1ccc(NC(=O)C2CCN(c3cnccn3)CC2)cc1` here?
Answer: inactive: 84%

Question: How did the survival turn out when `Fc1ccc2c(c1)-c1c(cnc3cc(-c4ccc(Cl)cc4)nn13)CO2` was run?
Answer: inactive: 65%

Question: With `CC(=O)N1CCc2cc(CNC(=O)Nc3ccc(Br)c(C)c3)ccc21` as the compound, how does the survival read?
Answer: inactive: 85%

Question: `COc1cccc(NC(=O)c2csnn2)c1` was tested. Which survival did it give?
Answer: inactive: 92%

Question: `Cc1c(C(=O)N(C)C)sc2c1c(=O)n(-c1ccc(F)cc1)c(=O)n2Cc1ccccc1C#N` was tested. Which survival did it give?
Answer: inactive: 88%

Question: For `CCc1ccccc1N(C)S(=O)(=O)c1ccc2c(c1)C(C)(C)C(=O)N2C`, which survival is on record?
Answer: inactive: 99%

Question: For `CCCNC(=O)Cn1nc(C(F)(F)F)c2c1CCC2`, which survival is on record?
Answer: inactive: 119%

Question: With `COCCNC(=S)N1CCC(C(=O)c2ccc(F)cc2)CC1` as the compound, how does the survival read?
Answer: inactive: 111%

Question: For `COc1ccc(CCN2C(=O)c3[nH]nc(-c4ccccc4O)c3C2c2ccccc2)cc1` (centres undefined), which survival is on record?
Answer: inactive: 67%

Question: With `C=CCSc1nc2sc3c(c2c(=O)[nH]1)CC(C)(C)OC3` as the compound, how does the survival read?
Answer: inactive: 112%

Question: For `C=Cc1ccc(Cn2ccn(-c3ccc(F)c(F)c3)c(=O)c2=O)cc1`, which survival is on record?
Answer: inactive: 117%

Question: With `COc1cc(NC(=O)CC2C(=O)N(c3cccc(C)c3)C(=O)N2Cc2cccs2)cc(OC)c1` (centres undefined) as the compound, how does the survival read?
Answer: inactive: 53%

Question: `Cc1ccc(C(=O)Nc2ccc3[nH]c(=O)c(=O)[nH]c3c2)cc1` was tested. Which survival did it give?
Answer: inactive: 87%

Question: How did the survival turn out when `CC(C)Oc1ccc(CNC(=O)Cn2c(-c3cccs3)cc3ccccc32)cc1` was run?
Answer: inactive: 64%

Question: With `COc1cccc(C(=O)Nc2ccc(S(=O)(=O)N(Cc3ccccc3)c3ccccc3)cc2)c1` as the compound, how does the survival read?
Answer: inactive: 80%

Question: Which survival does the source give for `CCS(=O)(=O)N1CCc2cc(C(=O)NCCc3ccc(OC)c(OC)c3)ccc21` here?
Answer: inactive: 85%

Question: With `Cc1ccc(C2CCN(C(=O)Nc3ccc(C)c(C)c3)C2)cc1` (centres undefined) as the compound, how does the survival read?
Answer: inactive: 66%

Question: How did the survival turn out when `CC1CCC(CC(=O)O)(CC(=O)O)CC1` was run?
Answer: inactive: 105%

Question: For `Cc1ccc(NC(=O)c2sc3ncnc(N(C)C4CCCCC4)c3c2C)cc1`, which survival is on record?
Answer: inactive: 148%

Question: `C[N+](C)(C)CC(O)COc1ccccc1` (centres undefined) was tested. Which survival did it give?
Answer: inactive: 107%

Question: Which survival does the source give for `Cc1ccc(C)c(N2CCN(c3nc4ccccc4c(=O)n3-c3ccccc3)CC2)c1` here?
Answer: active: 10%

Question: How did the survival turn out when `O=c1c2c3c(sc2n(Cc2ccc(F)cc2Cl)c(=O)n1-c1ccc(Cl)cc1)CCC3` was run?
Answer: inactive: 140%

Question: `CC(=O)c1ccc(N2CCN(C(=O)C3CCN(S(=O)(=O)c4c(C)noc4/C=C/c4ccccc4F)CC3)CC2)cc1` was tested. Which survival did it give?
Answer: inactive: 74%

Question: `Cc1cc(C)c(S(=O)(=O)NCCc2csc3nc(-c4ccc(Cl)cc4)nn23)c(C)c1` was tested. Which survival did it give?
Answer: inactive: 65%
